Laboratory results as given in paper PMC4176354.
Results are given in words; binding and its absence hold for the method and conditions named. Binding seen in cells or lysates may run through a third protein. Some entries that bind do so weakly or less than the wild type. Where a sequence is shown, tags or fusion partners need not be part of it.

The chains behind the UniProt entries cited, without tags or fusion partners.
UniProt P38859: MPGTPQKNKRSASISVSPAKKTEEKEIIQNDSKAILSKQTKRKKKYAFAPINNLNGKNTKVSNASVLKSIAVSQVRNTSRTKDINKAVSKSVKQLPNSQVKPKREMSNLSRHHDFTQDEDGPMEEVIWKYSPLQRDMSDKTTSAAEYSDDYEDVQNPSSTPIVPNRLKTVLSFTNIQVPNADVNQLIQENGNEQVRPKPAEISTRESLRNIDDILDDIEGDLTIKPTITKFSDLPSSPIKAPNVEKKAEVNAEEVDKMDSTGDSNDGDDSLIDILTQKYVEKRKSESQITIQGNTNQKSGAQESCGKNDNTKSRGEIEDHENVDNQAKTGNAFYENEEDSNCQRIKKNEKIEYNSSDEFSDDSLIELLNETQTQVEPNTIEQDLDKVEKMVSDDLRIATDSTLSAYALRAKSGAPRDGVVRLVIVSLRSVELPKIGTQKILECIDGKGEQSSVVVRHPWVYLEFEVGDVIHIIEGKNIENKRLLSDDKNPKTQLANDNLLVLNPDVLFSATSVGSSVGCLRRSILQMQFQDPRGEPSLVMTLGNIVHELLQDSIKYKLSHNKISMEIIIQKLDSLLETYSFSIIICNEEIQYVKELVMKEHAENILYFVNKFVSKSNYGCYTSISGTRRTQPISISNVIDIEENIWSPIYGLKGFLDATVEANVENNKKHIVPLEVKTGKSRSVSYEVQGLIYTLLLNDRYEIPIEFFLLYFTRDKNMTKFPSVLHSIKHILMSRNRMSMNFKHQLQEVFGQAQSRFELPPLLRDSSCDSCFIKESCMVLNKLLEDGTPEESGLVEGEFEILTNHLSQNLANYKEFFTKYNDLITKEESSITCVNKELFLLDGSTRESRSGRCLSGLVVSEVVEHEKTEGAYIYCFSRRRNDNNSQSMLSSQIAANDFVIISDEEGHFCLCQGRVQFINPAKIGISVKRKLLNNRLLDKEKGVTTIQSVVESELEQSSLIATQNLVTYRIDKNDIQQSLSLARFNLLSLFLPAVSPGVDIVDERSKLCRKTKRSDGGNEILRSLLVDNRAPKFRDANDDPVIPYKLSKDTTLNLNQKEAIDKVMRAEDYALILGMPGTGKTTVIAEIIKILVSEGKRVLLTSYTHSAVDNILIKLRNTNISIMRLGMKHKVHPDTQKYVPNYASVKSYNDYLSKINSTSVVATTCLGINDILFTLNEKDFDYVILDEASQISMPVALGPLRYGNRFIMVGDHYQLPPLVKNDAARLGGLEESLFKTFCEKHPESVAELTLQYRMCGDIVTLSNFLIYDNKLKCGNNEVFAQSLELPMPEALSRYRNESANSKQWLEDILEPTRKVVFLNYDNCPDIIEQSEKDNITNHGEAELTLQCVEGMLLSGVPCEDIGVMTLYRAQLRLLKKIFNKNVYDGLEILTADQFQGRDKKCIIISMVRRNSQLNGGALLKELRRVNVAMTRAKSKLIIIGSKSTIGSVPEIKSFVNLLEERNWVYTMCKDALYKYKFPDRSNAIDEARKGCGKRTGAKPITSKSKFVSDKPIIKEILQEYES

Tests used:
Experiment in all cases: co-IP; yeast cell lysates in IP buffer (pH 7.5, 20 mM HEPES, 140 mM NaCl, 1 mM EDTA, 1% Triton X 100, 0.1% sodium deoxycholate); anti-HA or anti-Myc antibody, protein G Dynabeads, 4°C overnight; four washes; western blot with anti-HA or anti-Myc
Dna2-HA (S. cerevisiae) = Dna2-HA (S. cerevisiae) (UniProt P38859)
Exo1-HA (S. cerevisiae) = target: T1, Exo1-HA (S. cerevisiae) (UniProt P39875)
T1 sequence: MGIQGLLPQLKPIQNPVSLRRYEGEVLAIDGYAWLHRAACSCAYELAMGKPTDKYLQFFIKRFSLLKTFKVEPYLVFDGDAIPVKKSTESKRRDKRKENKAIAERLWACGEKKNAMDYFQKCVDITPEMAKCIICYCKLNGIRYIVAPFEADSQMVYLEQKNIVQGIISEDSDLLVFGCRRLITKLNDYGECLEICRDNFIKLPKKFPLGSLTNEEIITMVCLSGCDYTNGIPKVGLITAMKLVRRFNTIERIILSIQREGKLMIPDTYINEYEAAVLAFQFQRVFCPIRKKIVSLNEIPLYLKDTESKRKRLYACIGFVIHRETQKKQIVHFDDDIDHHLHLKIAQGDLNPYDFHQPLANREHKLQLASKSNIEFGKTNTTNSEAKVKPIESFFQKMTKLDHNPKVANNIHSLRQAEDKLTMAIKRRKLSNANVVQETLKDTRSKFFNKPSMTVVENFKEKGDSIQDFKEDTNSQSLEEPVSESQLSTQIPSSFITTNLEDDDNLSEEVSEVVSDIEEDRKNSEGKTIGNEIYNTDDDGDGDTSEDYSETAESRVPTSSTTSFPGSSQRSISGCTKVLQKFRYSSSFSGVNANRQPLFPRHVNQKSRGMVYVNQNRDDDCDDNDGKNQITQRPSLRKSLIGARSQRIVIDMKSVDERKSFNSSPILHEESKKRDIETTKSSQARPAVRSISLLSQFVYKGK

Mec3-HA (S. cerevisiae) = target: T2, Mec3-HA (S. cerevisiae) (UniProt Q02574)
T2 sequence: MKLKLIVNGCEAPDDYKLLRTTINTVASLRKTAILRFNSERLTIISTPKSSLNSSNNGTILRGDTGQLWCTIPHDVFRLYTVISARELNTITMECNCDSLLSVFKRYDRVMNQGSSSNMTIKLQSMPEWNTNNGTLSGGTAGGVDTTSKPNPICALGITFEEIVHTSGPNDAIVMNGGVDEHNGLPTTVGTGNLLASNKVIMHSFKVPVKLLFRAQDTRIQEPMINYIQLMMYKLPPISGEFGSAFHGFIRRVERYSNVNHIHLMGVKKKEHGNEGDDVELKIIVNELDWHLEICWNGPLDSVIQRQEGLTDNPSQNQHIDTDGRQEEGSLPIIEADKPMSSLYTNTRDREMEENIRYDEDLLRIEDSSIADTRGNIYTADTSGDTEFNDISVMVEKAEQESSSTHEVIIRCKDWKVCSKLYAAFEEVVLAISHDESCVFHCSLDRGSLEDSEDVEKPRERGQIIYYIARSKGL

Sgs1-HA (S. cerevisiae) = target: T3, Sgs1-HA (S. cerevisiae) (UniProt P35187)
T3 sequence: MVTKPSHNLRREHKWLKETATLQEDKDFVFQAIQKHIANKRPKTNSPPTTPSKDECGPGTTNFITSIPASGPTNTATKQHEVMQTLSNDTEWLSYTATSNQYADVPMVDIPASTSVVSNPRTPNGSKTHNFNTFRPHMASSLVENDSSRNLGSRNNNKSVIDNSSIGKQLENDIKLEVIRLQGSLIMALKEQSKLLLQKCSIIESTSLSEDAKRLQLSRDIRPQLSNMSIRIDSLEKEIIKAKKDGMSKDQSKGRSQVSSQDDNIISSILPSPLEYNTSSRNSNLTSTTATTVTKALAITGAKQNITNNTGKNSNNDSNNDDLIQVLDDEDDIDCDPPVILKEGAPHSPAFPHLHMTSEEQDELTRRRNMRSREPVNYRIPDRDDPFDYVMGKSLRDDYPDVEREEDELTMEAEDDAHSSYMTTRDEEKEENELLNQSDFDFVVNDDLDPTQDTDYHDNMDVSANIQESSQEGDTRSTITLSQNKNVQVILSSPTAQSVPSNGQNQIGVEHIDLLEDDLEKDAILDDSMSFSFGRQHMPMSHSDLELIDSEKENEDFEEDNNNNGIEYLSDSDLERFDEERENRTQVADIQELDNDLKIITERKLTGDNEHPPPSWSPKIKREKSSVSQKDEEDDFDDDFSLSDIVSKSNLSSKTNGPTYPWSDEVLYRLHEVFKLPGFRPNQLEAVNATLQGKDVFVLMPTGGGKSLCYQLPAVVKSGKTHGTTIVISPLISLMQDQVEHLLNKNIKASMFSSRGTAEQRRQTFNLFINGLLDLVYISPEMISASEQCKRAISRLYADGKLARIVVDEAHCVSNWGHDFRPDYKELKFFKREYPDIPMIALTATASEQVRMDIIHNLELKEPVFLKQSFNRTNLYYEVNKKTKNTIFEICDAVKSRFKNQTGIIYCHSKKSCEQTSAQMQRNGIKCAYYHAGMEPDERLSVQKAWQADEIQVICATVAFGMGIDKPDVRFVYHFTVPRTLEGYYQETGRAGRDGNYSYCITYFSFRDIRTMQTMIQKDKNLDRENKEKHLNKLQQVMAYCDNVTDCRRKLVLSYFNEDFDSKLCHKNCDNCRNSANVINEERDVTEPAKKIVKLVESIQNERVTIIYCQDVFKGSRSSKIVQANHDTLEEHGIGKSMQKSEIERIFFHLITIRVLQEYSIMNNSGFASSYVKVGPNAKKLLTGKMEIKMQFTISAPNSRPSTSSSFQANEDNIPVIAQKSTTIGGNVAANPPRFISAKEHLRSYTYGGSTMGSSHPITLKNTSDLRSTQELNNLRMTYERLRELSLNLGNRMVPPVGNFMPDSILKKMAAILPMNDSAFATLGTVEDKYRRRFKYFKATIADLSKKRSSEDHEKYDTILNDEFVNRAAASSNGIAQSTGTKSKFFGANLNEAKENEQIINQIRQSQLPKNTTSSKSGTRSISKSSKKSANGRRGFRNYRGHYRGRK

binding (Dna2-HA (S. cerevisiae)): no binding | binding (Exo1-HA (S. cerevisiae)): no binding | binding (Mec3-HA (S. cerevisiae)): binds | binding (Sgs1-HA (S. cerevisiae)): no binding
B1: Ddc1-Myc (protein, UniProt Q08949 1-612)
chain: MSFKATITESGKQNIWFRAIYVLSTIQDDIKITVTTNELIAWSMNETDTTLCQVRFQKSFFEEYEFKPHEIVFGENGVQVIEDTYGNSHKLYSFRVNGRHLTTISRKPDGDGIKSFTIAVNNTSTCPESLANRLIVVIEMDSLIVKEYCPQFQPIKYDPIIINLKYKRRFLDVFGTAASDRNPQEPLDPKLLDVFTNTERELTSALFNEEVESDIRKRNQLTAADEINYICCNSTLLKNFLDNCNVNVTDEVKLEINVHRLSITAFTKAVYGKNNDLLRNALSMSNTISTLDLEHYCLFTTIEDEKQDKRSHSKRREHMKSIIFKLKDFKNFITIGPSWKTTQDGNDNISLWFCHPGDPILMQMQKPGVKLELVEVTDSNINDDILEGKFIKTAISGSKEEAGLKDNKESCESPLKSKTALKRENLPHSVAGTRNSPLKVSYLTPDNGSTVAKTYRNNTARKLFVEEQSQSTNYEQDKRFRQASSVHMNMNREQSFDIGTTHEVACPRNESNSLKRSIADICNETEDPTQQSTFAKRADTTVTWGKALPAADDEVSCSNIDRKGMLKKEKLKHMQGLLNSQNDTSNHKKQDNKEMEDGLGLTQVEKPRGIFD
